Laboratory results from PMC10668032.
This is one part of the list. At the low end of the ranking the order means little.

Target: SIX1-Q177R homeodomain (UniProt Q15475)
Assay: universal protein binding microarray
Settings: Universal all-10-mer PBM (8x60K, AMADID 030236), 300 nM GST-tagged protein, Alexa Fluor 488 anti-GST; buffer, salt, pH and temperature not stated; high values mean tight binding; most listed sequences are background and not binding sites; double strand, one strand shown

Sequence	binding signal
GTCTAGCA	-0.0411 E-score
ACCGAAGT	0.167 E-score
TGCGGGAA	-0.179 E-score
AACTGTGG	0.119 E-score
GCGATCCC	0.182 E-score
CACGAGGC	0.0535 E-score
TCGAAGCA	-0.166 E-score
TTGGCAAA	-0.246 E-score
AGACCCCG	0.281 E-score
GGATCCTA	0.147 E-score
AGCACTAG	-0.0435 E-score
AGGTTGGC	0.0013 E-score
AGGAATCC	0.133 E-score
AACGGTAG	0.028 E-score
CGTATATA	-0.034 E-score
ATTCCTAC	-0.068 E-score
AGTCAGCC	-0.152 E-score
GCCCAAGA	-0.105 E-score
CCCAGAGA	-0.084 E-score
GATCTAGC	0.0292 E-score
AAATGTCT	-0.316 E-score
AATATGAT	-0.177 E-score
AATGACTG	-0.161 E-score
CAGTCTCC	0.00555 E-score
GATAACGA	-0.0492 E-score

Sequence	binding signal
CAAGCCAA	-0.0923 E-score
CAGTTCCC	-0.144 E-score
ACTACTCC	0.163 E-score
CATCATCG	-0.0887 E-score
AGACCATG	-0.124 E-score
CTGAATTC	-0.0841 E-score
CGCTAACC	0.0815 E-score
AGAGTAGC	0.0138 E-score
AAGATCTG	-0.138 E-score
GTTTATTA	0.0798 E-score
CAGCCTAA	-0.2 E-score
GTCAAGAC	0.0799 E-score
CTGCTTAA	-0.177 E-score
GGAAAAAC	-0.0488 E-score
AATGAAGA	-0.172 E-score
AATTCCCC	-0.185 E-score
CAGAGGCA	-0.085 E-score
GAGATGCC	-0.271 E-score
AAGGAGCT	-0.028 E-score
ACGGACAT	-0.0259 E-score
CTGAATTA	-0.0832 E-score
CGACGGCG	-0.0488 E-score
ACTTGACA	0.0805 E-score
GTGATTGA	-0.0375 E-score
ATGTGTGG	-0.116 E-score

Sequence	binding signal
CTGCCCTC	0.0564 E-score
AGGAGACT	-0.13 E-score
ATGAGCTG	-0.0635 E-score
CGCAATGA	0.0288 E-score
CAAAGTGA	-0.0091 E-score
ACATATAG	-0.0495 E-score
CTACCTAA	-0.0501 E-score
TAGATCAA	-0.0713 E-score
CGGATCAA	0.0498 E-score
CCGGAGGC	-0.104 E-score
AAGTCGCT	-0.0363 E-score
AGAGGCTA	-0.183 E-score
AGCTTTAA	-0.0515 E-score
AGGACAGG	-0.153 E-score
CGCGTCAA	0.00889 E-score
CGTGAGTA	0.0183 E-score
CAGAGGTC	0.038 E-score
GCATGAGA	-0.248 E-score
TAGCTCGA	-0.047 E-score
AGTCACGC	0.0482 E-score
AAAGAATC	-0.0801 E-score
ACGTTCCG	-0.168 E-score
GTCACATA	0.138 E-score
GGGAGGCA	-0.0888 E-score
GTCCCTAA	-0.104 E-score

Sequence	binding signal
AATCTTGA	-0.0555 E-score
TCGCGCGA	-0.2 E-score
AGTTCTAC	0.0388 E-score
ACATGATA	-0.0885 E-score
GTTATGTA	-0.148 E-score
GGGCGAGA	-0.145 E-score
ATCTTGGA	0.0163 E-score
CCCGAGAG	-0.00821 E-score
AGCGACTG	-0.154 E-score
CGTTAACG	-0.0648 E-score
ATATACCA	-0.0807 E-score
GTTTTTAA	-0.149 E-score
AAATGGAC	-0.141 E-score
GGCGTGGA	0.0477 E-score
ATGCCCTC	-0.195 E-score
ACATTGCT	-0.0178 E-score
AATCGCCT	-0.282 E-score
GTAGCTCA	-0.0975 E-score
TACCTCCA	-0.0368 E-score
CATTGCGA	-0.0661 E-score
GTTGCTCA	-0.0294 E-score
GAGCCTCA	-0.286 E-score
ATGTCACC	0.0878 E-score
GCACCCAA	0.154 E-score
AGCAATTG	-0.194 E-score

Sequence	binding signal
AGCATGTG	-0.0787 E-score
ACGAAGGG	0.00825 E-score
CCCGGTTC	0.152 E-score
CGCGGTGA	-0.0315 E-score
AACTTAGC	-0.189 E-score
GCGAGGTA	0.0146 E-score
CCCGACAC	0.45 E-score
TCAACCCA	-0.029 E-score
CATCTCTA	-0.0868 E-score
ACTTGCTC	-0.126 E-score
CAGCCATC	-0.145 E-score
AGAACAAC	-0.115 E-score
ACAATCCC	-0.024 E-score
GTTCGTCA	-0.183 E-score
CCATTTAC	0.109 E-score
CACTTAAA	-0.0477 E-score
AGCTGCGG	-0.141 E-score
ACGCACAC	0.307 E-score
CAAGCCGA	0.139 E-score
ATGACTCA	-0.135 E-score
AAGGCCCT	-0.244 E-score
CTGGATAA	-0.117 E-score
TGAGCTCA	-0.183 E-score
GTGACTGA	-0.059 E-score
AGGTTAAC	0.0373 E-score

Sequence	binding signal
ACTTAGCC	0.0304 E-score
CAATGGTA	0.00789 E-score
ACAATATG	0.0623 E-score
GTTGGTCA	-0.0833 E-score
AGCGATCA	-0.112 E-score
AATAGGCA	-0.22 E-score
ATGCGTGG	-0.0228 E-score
ATGAGAAA	-0.35 E-score
GAATTTAA	-0.291 E-score
GGTATTAA	0.0495 E-score
AACCAGCG	-0.168 E-score
CATCCGAC	0.129 E-score
AACCCGCG	0.229 E-score
CGTAGAAG	-0.136 E-score
AGATATGC	-0.128 E-score
CACACCGG	0.418 E-score
CTGCAATC	-0.0149 E-score
AACCCAAA	-0.142 E-score
GTAGGACA	0.146 E-score
ACGTGTCT	0.337 E-score
CCTTCGGC	-0.166 E-score
CCTCCCGC	-0.0183 E-score
GCACATGC	-0.13 E-score
CAGGTGGC	-0.153 E-score
ACGTTCTA	-0.169 E-score

Sequence	binding signal
GGACTACA	0.0514 E-score
AGCGAAAT	-0.168 E-score
GTATCAAA	0.159 E-score
GACGGCCC	-0.287 E-score
AAGCCGCA	-0.225 E-score
ATAGTAGA	0.0325 E-score
AAGCTGTG	0.0339 E-score
ATTTAGGA	-0.0626 E-score
AAGTACTA	-0.0924 E-score
AATCTGCG	-0.0932 E-score
ACGCTCTG	-0.0845 E-score
AACGTAGT	-0.106 E-score
ATCTAATA	0.0286 E-score
ATATGTGA	0.0546 E-score
ACGTTAGA	-0.129 E-score
TATGGTGA	0.0395 E-score
CCGGTTAC	0.185 E-score
AAAGGCGC	-0.0781 E-score
GCAACCAC	-0.05 E-score
CCCGGTGC	0.154 E-score
GGTTGTAC	0.122 E-score
GCTGAGAC	-0.0687 E-score
